{
  "source": "PubChem BioAssay AID624418",
  "about": "(National Center for Advancing Translational Sciences (NCATS), 2012)",
  "note": "Several values for one entry are separate records, joined by “and”; a condition that tells them apart may be missing. Equal entries are not always repeated. Among all 410,000 compounds or so, about 530 (0.13%) were called active. This list was built around the results that the source calls inconclusive (neither active nor inactive); the mix of calls is not that of the screen. Calls follow the shape of the dose curve; as a rule, active = well fitted inhibition curve with a large enough effect; inconclusive = small, poorly fitted or top-dose-only effect, or another doubt; inactive = no such curve, though single readings can be large or run the other way. A potency beside an inconclusive call is a rough fit, not a confirmed value. % is scaled to controls: 0 for no effect and ±100 for the full control effect; potency is read from the fitted curve at half-maximal effect.",
  "data": [
    {"assay": "qHTS of GLP-1 Receptor Inverse Agonists: Cytotox Screen", "settings": "HEK293 cAMP-luciferase reporter cells, luminescence, 24 h; activity change, negative = inhibition: at 38.3 µM (top of the series) unless noted", "outline": "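Here, cytotoxicity is scored as loss of luminescence. The MLSMR collection was tested on cells seeded in medium containing 10% Nu serum, with a 24 hr compound exposure preceded by 12 hours of culture.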", "values": [
      {"smiles": "CN1CN(C)c2ccc([N+](=O)[O-])c3cccc1c23", "activity change, negative = inhibition": "inconclusive: -36.5% [inhibitor]"},
      {"smiles": "Oc1cccc(C=Nc2cccc3ccccc23)c1O", "Potency": "inconclusive: 10 µM [inhibitor, partial curve, poor fit]"},
      {"smiles": "Cc1ccn2c(=O)cc(COc3cccc(NC(=O)Nc4cccc(Cl)c4C)c3)nc2c1", "Potency": "inactive"},
      {"smiles": "Cc1c(Cl)cccc1NC(=S)NCc1ccc(Cl)cc1", "Potency": "inconclusive: 3.55 µM [inhibitor, full curve, poor fit]"},
      {"smiles": "Cc1cccc(-c2ccc3[nH]c4c(c3c2)CCN2C[C@@H]([C@H](C)O)[C@@H](N(C)C(=O)Nc3ccc(F)cc3)C[C@@H]42)c1", "Potency": "inconclusive: 8.91 µM [inhibitor, partial curve, poor fit]"},
      {"smiles": "O=C(NCC(c1ccco1)N1CCCC1)c1ccccc1Sc1ccc(C(F)(F)F)cc1[N+](=O)[O-]", "note": "(stereo not given)", "Potency": "inconclusive: 28.2 µM [inhibitor, single point]"},
      {"smiles": "CCCCNS(=O)(=O)c1ccc(NC(=O)C2c3ccccc3Oc3ccccc32)cc1", "Potency": "inconclusive: 31.6 µM [inhibitor, single point]"},
      {"smiles": "Cc1cc(Nc2cccc(C(F)(F)F)c2)nc2ccc(NC(=O)c3cccc(Cl)c3)cc12", "Potency": "inconclusive: 10 µM [inhibitor, partial curve]"},
      {"smiles": "COc1ccc(CNC(=O)C[C@H]2C(=O)N(Cc3ccccc3)C[C@@H]2Cc2ccccc2)cc1", "Potency": "inconclusive: 5.62 µM [inhibitor, partial curve, poor fit]"},
      {"smiles": "CC1CCCN(S(=O)(=O)c2ccc3c(c2)c(=O)nc2ccccn23)C1", "note": "(stereo not given)", "Potency": "inactive"},
      {"smiles": "COc1cc([N+](=O)[O-])cc(/C=N\\NC(=O)C2COc3ccccc3O2)c1O", "note": "(stereo not given)", "Potency": "inconclusive: 1 µM [inhibitor, full curve, poor fit]"},
      {"smiles": "CC(=O)COC(=O)c1ccc2noc(-c3ccccc3)c2c1", "Potency": "inconclusive: 3.16 µM [inhibitor, full curve, poor fit]"},
      {"smiles": "COc1ccc(NC(=S)NC(NC(=O)c2ccc(Cl)cc2Cl)C(Cl)(Cl)Cl)c([N+](=O)[O-])c1", "note": "(stereo not given)", "Potency": "inconclusive: 10 µM [inhibitor, single point]"},
      {"smiles": "CCc1cccc(NC(=O)CN(C)S(=O)(=O)c2ccc3c(c2)CCCN3C(C)=O)c1", "Potency": "inactive"},
      {"smiles": "C/C(=N\\NC(=O)c1ccc(Cl)c(Cl)c1)c1ccc(Br)s1", "activity change, negative = inhibition": "inactive: 13.2% [at 1.53 µM]"},
      {"smiles": "COc1ccc([N+](=O)[O-])cc1NC(=O)C(C)OC(=O)C1CCCC1", "note": "(stereo not given)", "Potency": "inconclusive: 11.2 µM [inhibitor, single point]"},
      {"smiles": "CC(C)c1ccc(NC(=S)NC2CCCCCC2)cc1", "Potency": "inconclusive: 10 µM [inhibitor, partial curve, poor fit]"},
      {"smiles": "O=C(NCc1ccco1)c1ccccc1-c1nc(-c2ccccc2)no1", "Potency": "inconclusive: 14.1 µM [inhibitor, single point]"},
      {"smiles": "CCN1CCN(c2ccc(S(=O)(=O)N3CCCCC3)cc2NC(=O)/C=C/c2ccc([N+](=O)[O-])cc2)CC1", "Potency": "inconclusive: 10 µM [inhibitor, partial curve]"},
      {"smiles": "Cc1ccc(/C=N/n2cc(-c3ccccc3)[nH]c2=S)s1", "Potency": "inactive"},
      {"smiles": "CC(OC(=O)CNC(=O)c1ccccc1F)C(=O)Nc1nc(-c2ccccc2)cs1", "note": "(stereo not given)", "Potency": "inactive"},
      {"smiles": "O=C1C(=Cc2cn(-c3ccccc3)nc2-c2ccc(OCc3ccccc3F)cc2)SC(=S)N1CCS(=O)(=O)O", "Potency": "inconclusive: 3.16 µM [inhibitor, partial curve, poor fit]"},
      {"smiles": "Cc1ccc(CN2[C@@H](c3ccccc3)COCCS2(=O)=O)cc1", "Potency": "inconclusive: 0.501 µM [inhibitor, full curve, poor fit]"},
      {"smiles": "CSc1ccc(-c2nnc(NC(=O)c3ccc4c(c3)OCCO4)o2)cc1", "Potency": "inactive"},
      {"smiles": "Cc1c(Cl)cnc(NC(=O)COC(=O)c2ccc3ncsc3c2)c1Cl", "Potency": "inactive"},
      {"smiles": "CCOC(=O)N1CCC(NC(=O)c2ccc3c(c2)sc2nc(-c4ccccc4)cn23)CC1", "Potency": "inconclusive: 14.1 µM [inhibitor, single point]"},
      {"smiles": "CCOC(=O)c1ccc(NC(=O)CSc2nncn2-c2cccnc2)cc1", "Potency": "inconclusive: 28.2 µM [inhibitor, single point]"},
      {"smiles": "Cc1onc(-c2ccccc2)c1C(=O)NC(=S)NNC(=O)c1ccccc1O", "Potency": "inconclusive: 7.08 µM [inhibitor, partial curve]"},
      {"smiles": "O=C(O)Cn1c(O)c(C=Nc2ccccc2)sc1=S", "Potency": "inconclusive: 12.6 µM [inhibitor, single point] and inconclusive: 8.91 µM [inhibitor, partial curve, poor fit]"},
      {"smiles": "Cc1cccc(CN(CC(=O)N/N=C/c2ccco2)S(=O)(=O)c2ccc(Cl)cc2)c1", "Potency": "inactive"},
      {"smiles": "O=C(NC(=S)NC1CCCc2ccccc21)c1ccc(F)cc1", "note": "(stereo not given)", "Potency": "inconclusive: 28.2 µM [inhibitor, single point]"},
      {"smiles": "N#C/C(=N\\Nc1ccc(S(=O)(=O)N2CCOCC2)cc1)C(N)=S", "Potency": "inconclusive: 22.4 µM [inhibitor, single point]"},
      {"smiles": "CC1=C(C(=O)N2CCCCCC2)C2(CCC(C)CC2)OC1=O", "note": "(stereo not given)", "Potency": "inconclusive: 28.2 µM [inhibitor, single point]"},
      {"smiles": "Cn1nc(C(F)(F)F)c2cc(C(=O)Nc3ccc(F)cc3)sc21", "Potency": "inconclusive: 28.2 µM [inhibitor, single point]"},
      {"smiles": "Cc1ccccc1Oc1nc(-c2ccccn2)nc2ccccc12", "Potency": "inconclusive: 1.12 µM [inhibitor, full curve, poor fit]"},
      {"smiles": "O=C(NCCCN1CCOCC1)c1ccc2c(=O)n(CCc3ccccc3)c(=O)[nH]c2c1", "Potency": "inactive"},
      {"smiles": "O=C(Nc1ncc(Cc2ccccc2)s1)C1CCCO1", "note": "(stereo not given)", "Potency": "inconclusive: 11.2 µM [inhibitor, partial curve, poor fit]"},
      {"smiles": "CC1=CC(C)(C)NC(=S)N1c1ccc2ccccc2c1", "Potency": "inactive and inconclusive: 11.2 µM [inhibitor, partial curve]"},
      {"smiles": "CN1CCN(Cc2cc(COCc3ccccc3)c3cccnc3c2O)CC1", "Potency": "inconclusive: 0.562 µM [inhibitor, full curve, poor fit]"},
      {"smiles": "CCN(CC)CCNC(=O)c1c2c(nc3ccccc13)C(=O)N(C1CCCCC1)C2", "Potency": "inactive"}
    ]}
  ]
}
